Assay results as given in article PMC4336329 (PLoS ONE, 2015).
Hit rate of the full screen: of about 310,000 compounds, about 2,200 (0.71%) showed an effect of 50% or more. The effect is printed as a negative number. This is one part of the list.

biological target: human ether-à-go-go-related gene (hERG) potassium channel (human, UniProt Q12809); test: primary screen, population patch clamp on CHO cells stably expressing hERG
Sequence (Q12809 whole entry, looked up): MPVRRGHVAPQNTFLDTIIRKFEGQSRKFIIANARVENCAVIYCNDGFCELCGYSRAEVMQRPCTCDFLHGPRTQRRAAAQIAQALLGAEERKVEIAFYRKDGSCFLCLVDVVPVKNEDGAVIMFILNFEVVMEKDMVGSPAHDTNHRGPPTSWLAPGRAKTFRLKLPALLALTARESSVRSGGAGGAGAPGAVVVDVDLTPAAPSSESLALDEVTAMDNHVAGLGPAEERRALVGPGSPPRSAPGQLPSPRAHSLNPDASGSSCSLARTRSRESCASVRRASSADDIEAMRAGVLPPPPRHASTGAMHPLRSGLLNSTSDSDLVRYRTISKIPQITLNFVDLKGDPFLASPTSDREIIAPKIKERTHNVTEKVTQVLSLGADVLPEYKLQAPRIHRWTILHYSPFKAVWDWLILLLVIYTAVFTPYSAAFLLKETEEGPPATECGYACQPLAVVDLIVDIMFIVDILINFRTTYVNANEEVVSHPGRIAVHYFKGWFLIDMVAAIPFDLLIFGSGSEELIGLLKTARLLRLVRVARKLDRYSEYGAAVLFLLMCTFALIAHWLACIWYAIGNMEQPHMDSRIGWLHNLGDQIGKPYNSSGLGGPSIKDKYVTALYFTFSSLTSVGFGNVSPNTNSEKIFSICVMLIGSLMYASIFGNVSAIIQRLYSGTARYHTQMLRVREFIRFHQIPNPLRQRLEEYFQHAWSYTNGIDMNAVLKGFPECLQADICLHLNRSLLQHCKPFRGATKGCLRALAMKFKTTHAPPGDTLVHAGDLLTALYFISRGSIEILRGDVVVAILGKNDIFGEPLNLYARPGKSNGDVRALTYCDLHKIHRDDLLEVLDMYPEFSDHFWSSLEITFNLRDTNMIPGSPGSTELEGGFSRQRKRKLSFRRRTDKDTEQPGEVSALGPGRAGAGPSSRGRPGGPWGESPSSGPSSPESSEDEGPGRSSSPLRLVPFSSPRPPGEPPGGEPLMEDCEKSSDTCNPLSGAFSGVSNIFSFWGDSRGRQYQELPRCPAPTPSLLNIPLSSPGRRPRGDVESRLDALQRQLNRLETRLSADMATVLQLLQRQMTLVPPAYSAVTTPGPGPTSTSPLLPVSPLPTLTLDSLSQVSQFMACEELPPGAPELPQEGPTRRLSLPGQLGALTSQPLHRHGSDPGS

SMILES	hERG current change (%, negative = inhibition) at 1uM
CCC(C(=O)NCc1ccccc1OC)n1nc(C)n2c(cc3occc32)c1=O (stereo not drawn)	6.05%
O=C(Nc1ccncc1)c1ccc(N2CCCC2=O)cc1	2.38%
O=S(=O)(/N=C(/Nc1ccc(Cl)cc1Cl)c1ccccc1)c1cccs1	11.2%
CCOC(=O)C1=C(C)N(CCCCCC(=O)O)C(=O)NC1c1ccccc1OS(=O)(=O)c1ccc(C)cc1 (stereo not drawn)	-6.08%
Cc1ccccc1Cn1nc(C)c(NC(=O)c2ccccc2)c1C	-3.28%
O=C(NCCc1ccc(F)cc1)c1cc2ccccc2oc1=O	9.88%
CN(C)c1ccc(C(=S)N2CCOCC2)cc1Br	5.44%
COc1ccc(NC(=O)CN(C)C(=O)c2ccc(N3CCCCCC3)c([N+](=O)[O-])c2)cc1	-15.7%
Cc1cccc(-n2nnnc2SCC(=O)NCC2CCCO2)c1 (stereo not drawn)	7.81%
CCCSc1ncnc2sc(C)c(C)c12	2.67%
COCCn1c(SCC#N)nnc1-c1ccc([N+](=O)[O-])cc1	-12.9%
C=CC1CN2CCC1CC2[C@@H](OC(=O)c1ccc(OC)cc1)c1ccnc2ccccc12 (stereo partly drawn)	6.91%
CCOC(=O)N1CCN(C(=O)CNC(=O)C23CC4CC(CC(C4)C2)C3)CC1	15.2%
N#Cc1cccc(NC(=O)CC2CCCC2)c1	16.2%
CCOC(=O)N1CCC(NC(=O)Cn2cc3c(n2)CCC(C)C3)CC1 (stereo not drawn)	2.98%
Cc1cc(C)c(C#N)c(SCc2cn3ccccc3n2)n1	3.02%
Cc1oc2c(C)c(O)ccc2c(=O)c1-c1ccc2ccccc2n1	16.3%
Cc1cccc(C(=O)NCCC(=O)Nc2ccc(F)c([N+](=O)[O-])c2)c1	2.37%
O=C(CC1CCCCC1)NCc1nc(-c2ccccc2)no1	8.79%
CSc1nnc(C2CCCN2)n1C.Cl (stereo not drawn)	4.43%
CCOC(=O)C1=C(C)Nc2nnnn2C1c1c[nH]c2ccccc12 (stereo not drawn)	10%
O=C(O)Cc1c(C(=O)O)nnn1-c1cccc(C(F)(F)F)c1	9.73%
O=c1oc2ccccc2n1CCCCCn1c(=O)oc2ccccc21	2.86%

SMILES	hERG current change (%, negative = inhibition) at 1uM
CCc1cc2c(CN3CCN(CC)CC3)cc(=O)oc2cc1O	6.68%
CCC(C(=O)NC1CCCC1)N(C(=O)Cn1nnc(-c2ccc(C)o2)n1)c1cccc(OC)c1 (stereo not drawn)	6.28%
CN(Cc1ccccc1)C(=O)c1[nH]cnc1C(=O)N[C@@H](Cc1ccccc1)C(=O)OC(C)(C)C	7.2%
CC(CCc1ccccc1)NC(=O)C(=O)NCCO (stereo not drawn)	0.364%
CC(C)NC(=O)/C(C#N)=C/c1ccc(N(C)C)o1	13.2%
CCCCS(=O)(=O)CC(COc1ccccc1)OC(=O)c1ccccc1 (stereo not drawn)	5.77%
CCNC(=S)N(CCc1ccc(S(N)(=O)=O)cc1)C1CC(=O)N(c2ccccc2)C1=O (stereo not drawn)	7.82%
c1ccc2c(c1)Cn1nnnc1-2	3.8%
CCOc1cc(/C=C\c2nc(O)c([N+](=O)[O-])c(=O)[nH]2)ccc1OC(C)C	14.6%
CCC(OC(=O)c1nsc(Cl)c1Cl)C(=O)NCCOC (stereo not drawn)	4.67%
Cc1c(NS(=O)(=O)N2CCCCC2)c(=O)n(-c2ccccc2)n1C	15.5%
COC(=O)c1ccc(NC(=O)c2ccc3nccnc3c2)cc1	11.4%
O=C(CCl)N=c1sccn1Cc1ccc(Cl)cc1Cl	20.1%
Cc1ccc(-c2cc(C(=O)Nc3cccnc3)c3ccccc3n2)s1	12.1%
O=C(NCCCN1CCOCC1)c1ccc(NC(=O)C2COc3ccccc3O2)cc1 (stereo not drawn)	-6.89%
C=CCSC1=N/C(=C\c2cccnc2)C(=O)N1c1ccc(OC)cc1	12.1%
CC1CCCC(NC(=O)c2cc(S(=O)(=O)N3CCOCC3)ccc2F)C1C (stereo not drawn)	-2.33%
O=C1N=NC(=O)N1c1ccccc1	11.4%
CN1CCCC(OC(=O)COc2ccc(Br)cc2)C1.Cl (stereo not drawn)	-0.399%
CCc1nnc(NC(=O)C2=CCN(S(=O)(=O)c3ccccc3)CC2)s1	9.95%
COc1ccccc1N(CC(O)COc1ccc(C)cc1)S(=O)(=O)c1ccccc1 (stereo not drawn)	7.88%
O=C(c1ccco1)N1CCN(C2=NS(=O)(=O)c3ccccc32)CC1	1.87%
